Measured values reported in the supplement of paper PMC3334620.
Over roughly 33,000 sequences, “E-score (-0.5 to 0.5)” has its median near -0.041; the highest 2% begin near 0.37. Some of the results follow.

molecular target: T1, Ecm22 (UniProt Q05958); assay: PBM E-score (8-mer binding enrichment) (E-score (-0.5 to 0.5)); higher = stronger / more preferred TF binding; most listed sequences are background and not binding sites; details: protein concentration: 200 nM; construct: GST-full length
T1 sequence: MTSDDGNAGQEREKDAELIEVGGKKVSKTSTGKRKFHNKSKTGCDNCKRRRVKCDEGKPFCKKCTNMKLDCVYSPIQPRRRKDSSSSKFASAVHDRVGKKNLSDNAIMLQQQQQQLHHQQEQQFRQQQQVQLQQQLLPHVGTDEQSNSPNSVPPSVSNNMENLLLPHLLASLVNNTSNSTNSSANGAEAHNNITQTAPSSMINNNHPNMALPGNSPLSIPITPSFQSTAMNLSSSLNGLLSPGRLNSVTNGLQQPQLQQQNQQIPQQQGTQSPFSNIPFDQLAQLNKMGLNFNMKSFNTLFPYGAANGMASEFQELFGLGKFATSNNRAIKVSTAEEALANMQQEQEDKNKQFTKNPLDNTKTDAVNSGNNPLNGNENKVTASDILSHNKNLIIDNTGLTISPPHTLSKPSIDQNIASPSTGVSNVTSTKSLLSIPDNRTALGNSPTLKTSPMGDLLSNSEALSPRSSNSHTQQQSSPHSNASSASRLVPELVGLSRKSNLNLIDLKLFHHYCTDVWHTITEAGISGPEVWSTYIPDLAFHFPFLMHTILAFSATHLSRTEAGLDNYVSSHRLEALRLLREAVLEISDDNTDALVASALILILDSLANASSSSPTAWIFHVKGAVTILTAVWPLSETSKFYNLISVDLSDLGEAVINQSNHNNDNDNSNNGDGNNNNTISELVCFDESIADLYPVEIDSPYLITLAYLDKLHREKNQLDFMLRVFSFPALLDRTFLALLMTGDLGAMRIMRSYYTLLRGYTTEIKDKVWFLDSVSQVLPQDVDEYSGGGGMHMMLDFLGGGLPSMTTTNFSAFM
Procedure, shortened: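 Full-length yeast transcription factors or their DNA-binding domains, GST-tagged and expressed with PURExpress, were applied at about 100-200 nM to universal all-10-mer Agilent arrays. These arrays had been made double-stranded by primer extension on fresh or once-stripped slides. Detection used fluorescent anti-GST, normalisation used masliner, and E-scores for ungapped eight-base words pooled with reverse complements came from the Universal PBM Analysis Suite.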

Sequence	PBM E-score
GGATCGTA	0.434
GTCGGCTA	0.102
AGATCTAA	-0.0535
AGAGTGCG	0.0549
GCCCGTAA	0.221
CAGAGAAG	-0.00762
GGAATAGA	-0.0728
GAAGTTGA	0.0401
AAGGGTAT	-0.0533
CGACCGAA	0.161
ATGAACAG	-0.0283
CAGGCGTC	-0.1
ACTGACAG	0.152
AGGCTGAC	-0.219
CCATAATC	-0.223
AAGCTAGC	-0.0471
ATGCCGTG	-0.166
ACGAGAGT	0.328
CAATCGAC	-0.249
AGCTTAGC	-0.131
AAAGCTGA	-0.21
GTTATTTA	0.101
AGGTTTCC	-0.187
CTCCTCCA	-0.113
AGAGGAAC	0.00169

Sequence	PBM E-score
ATGAATAG	0.174
AGCGTTAG	-0.102
CCCTTAGG	-0.159
GTGAAAAA	-0.0736
AGACGGTG	-0.132
CAGCAATG	-0.198
CAAGACAG	-0.297
ACGAGTTC	0.319
CTACCTTC	-0.0409
ACACAGAT	-0.115
CCCAGCGA	-0.105
GGCCAACA	-0.0839
GCCGCCGC	-0.202
ATGCCGAC	-0.00097
CTACTAAC	-0.00374
ACCTCTCA	-0.271
ATGGGGAC	-0.248
CATGATTA	0.154
AACGCCAC	-0.0427
CAAAGACG	-0.129
AAAGCAGC	-0.105
CTCATCGA	-0.0607
ACTACCCG	-0.00235
GAACGCGC	0.313
GCGACGAC	0.0579

Sequence	PBM E-score
AGAGTGGA	-0.188
CCATAGAG	-0.273
GAGACCTA	0.00975
GCCGTTCA	0.229
ACCACAAT	0.0332
AATTCATG	0.0523
GCGGATCC	0.016
CCACAAGG	-0.279
CCACTAGC	-0.199
CACCGATC	0.0383
CAATGCCC	-0.149
ACTCACAA	-0.137
AGGTGAAA	0.0593
AGTTGTAT	-0.031
ATTACGGG	0.0111
GATACGGA	0.285
CTACGGAC	-0.07
ATTGGCAC	-0.0954
GAGCGTTA	-0.0224
GAATATGC	0.114
GCAAGCCA	-0.0477
TAAGATCA	-0.0601
AGACACCA	0.0308
ACCCCGCA	-0.0609
AGAGTACA	-0.145

Sequence	PBM E-score
CCTGTTGA	-0.207
AGGCAAAT	-0.0149
AAAAACAG	-0.0439
AACGGAAC	0.317
TCGACCCA	-0.0248
ATGCATGC	-0.149
GACTTGCA	-0.049
AGCAATAA	-0.127
AGATCGCT	0.0294
ATTCAAAT	-0.12
CTCGCTAA	0.337
AGTGCTGG	-0.152
GCCAGACA	-0.0174
GGTGTCAC	-0.161
CTACTGAC	-0.125
ATACCGGG	-0.0133
AGGCGAGG	0.0681
ACAAACTG	-0.00036
ATGTTATC	-0.0316
CGGGAAGA	0.21
ATTCTCTG	-0.141
GAGCTATA	-0.11
CGCCTCCG	-0.124
AGTTATCA	-0.0889
AGAACTAT	0.109

Sequence	PBM E-score
ACCCGAGC	0.284
TGTATCAA	-0.0485
GCCGCTGA	-0.11
AATGCTGA	-0.208
GACCCTCA	-0.297
GTATAAGA	0.311
CGAAGTCC	0.0262
ATATACGC	0.299
TGCCCGCA	0.052
AGCTTACG	0.248
CCCACCTC	-0.0565
GAGACAGC	-0.104
CCAAGTCG	0.12
GCAGATAA	-0.0358
AATTATGA	0.0174
CGAACTGA	0.0518
CGCCACTA	-0.208
CGGAGACG	0.174
GAACTCCA	-0.195
TCCACAGA	-0.222
CGCCTAAG	-0.024
ATCGTGCG	0.228
AAACGCGC	0.0568
CGTGTGCA	-0.0516
CAAGTGGG	-0.159

Sequence	PBM E-score
CACCCGTC	-0.192
CAACGGCC	-0.0502
ACTCACTG	-0.267
AAGTGTAA	-0.116
AACAACAA	0.0166
AGCCATTG	-0.11
AAAGTCAT	-0.118
GAGCGGAA	0.156
AATGTGAC	-0.175
AGATCCAC	-0.221
AGGACTAA	-0.214
CACGAGGG	0.189
ACAGGTAG	-0.0884
AGCAAGGA	-0.0928
ATCAGACG	0.0743
ACTGCGGG	-0.211
AGAATAGC	-0.137
TGGAGCAA	-0.0481
AGTCGTAC	0.46
ATCCTCGG	0.212
ACGAGGGG	0.365
GCGTTGAC	-0.107
CCCAATAA	-0.161
TACTGCTA	-0.0618
AAACACAT	0.0238

Sequence	PBM E-score
ATCTGCTC	-0.124
AGGGCCCT	-0.121
GCAGGTTA	-0.00079
AAATGACT	-0.344
GAGGCAAC	-0.128
TCCACCGA	-0.127
CGCTGCTA	0.033
AAGGGATG	-0.124
ACGTCCAA	-0.0607
GTTGGTAA	0.196
CGTGGAGA	-0.141
GGCTTAAC	0.126
ACGATTCG	0.35
ATGAGCGG	-0.0285
CCCAGGTA	-0.168
CAATGGGC	-0.209
CCCCTCGA	0.026
GCTTATAC	0.277
TCTGGAAA	-0.0896
AGAGAGTA	-0.0862
AGTGCCTC	-0.0589
CGCGATAG	0.135
